Measurements reported in PubChem BioAssay (NCATS).
“And” between values parts separate entries of the source, which are not always exact repeats. Equal entries are not always repeated. The inconclusive results got no clear call from the source; some entries with a clear call stand among them for comparison. Where the call is inconclusive, the potency comes from a doubtful curve fit. The source made the active and inactive calls. Calls come from the whole dose curve; as a rule, active = well fitted curve in the direction sought with a large enough effect; inconclusive = small, poorly fitted or top-dose-only effect, or another doubt; inactive = no such curve, though single readings can be large; an effect the other way counts as inactive or inconclusive.

What was measured:
KB-3-1 = experiment: Cytotoxic Profiling of Annotated Libraries Using Quantitative High-Throughput Screening (AID 1296008); settings: Five cell lines viability, CellTiter-Glo ATP luminescence, 48-72 h; max response: stronger effect = lower value; note: nearly all actives have a fitted effect of over 60% in size
Summary of the method: (§1)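 Cytotoxicity was measured as CellTiter-Glo ATP luminescence, read after 10 min at room temperature. Compound treatment of the cells lasted 48 or 72 hr at 37 degrees Celsius in a qHTS format.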

MCC-13 = experiment: qHTS assay to identify novel small-molecules to repurpose for Merkel cell carcinoma treatment (AID 1296009); settings: MCC and control cell lines, CellTiter-Glo viability, 72 h; series mostly up to 46 µM; note: nearly all actives have a fitted effect of over 60% in size
Summary of the method: (§2)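 Cell viability, measured as CellTiter-Glo luminescence, was normalized between DMSO and no-cell wells. The cells had been exposed to 8- or 11-point compound dilutions for 72 hr at 37 degree celsius.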

MKL-1 = experiment: as above; settings: MCC and control cell lines, CellTiter-Glo viability, 72 h; series mostly up to 46 µM
Summary of the method: as §2

MKL-2 = experiment: as above; settings: MCC and control cell lines, CellTiter-Glo viability, 72 h; activity change, negative = cytotoxicity: at 46 µM (top of the series)
Summary of the method: as §2

WaGa = experiment: as above; settings: MCC and control cell lines, CellTiter-Glo viability, 72 h; series mostly up to 46 µM
Summary of the method: as §2

C33A = experiment: Primary qHTS to identify gynecologic anti-cancer compounds using libraries of approved drugs and bioactive compounds (AID 1345084); settings: Gynecologic cancer cell panel viability, ATPlite luminescence, 48 h; series mostly up to 57.5 µM; note: nearly all actives have a fitted effect of over 55% in size
Summary of the method: (§3)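 Five-point cytotoxicity, 48 h drug exposure at 37 C, 5% CO2, on cells seeded 16 h beforehand. ATP content read by ATPlite luminescence.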

UISO = experiment: qHTS assay to identify novel small-molecules to repurpose for Merkel cell carcinoma treatment (AID 1296009); settings: MCC and control cell lines, CellTiter-Glo viability, 72 h; series mostly up to 46 µM; note: nearly all actives have a fitted effect of over 60% in size
Summary of the method: as §2

MCC-26 = experiment: as above; settings: MCC and control cell lines, CellTiter-Glo viability, 72 h; series mostly up to 46 µM
Summary of the method: as §2

CAOV3 = experiment: Primary qHTS to identify gynecologic anti-cancer compounds using libraries of approved drugs and bioactive compounds (AID 1345084); settings: Gynecologic cancer cell panel viability, ATPlite luminescence, 48 h; series mostly up to 57.5 µM; note: nearly all actives have a fitted effect of over 55% in size
Summary of the method: as §3

NIH3T3 = experiment: Cytotoxic Profiling of Annotated Libraries Using Quantitative High-Throughput Screening (AID 1296008); settings: Five cell lines viability, CellTiter-Glo ATP luminescence, 48-72 h; max response: stronger effect = lower value; note: nearly all actives have a fitted effect of over 60% in size
Summary of the method: as §1
% is set by controls: 0 for no effect and ±100 for the full control effect; potency is the fitted concentration of half-maximal effect; tags give direction and shape of the fitted curve.

O=C(Nc1nnc(-c2ccco2)o1)c1cc(-c2ccccc2)nc2ccccc12
Potency (KB-3-1): inconclusive: 37.2 µM [inhibitor, single point]
Potency (MCC-13): inconclusive: 29.6 µM [inhibitor, single point]
Potency (MKL-1): inconclusive: 26.4 µM [inhibitor, single point]
Potency (MKL-2): inconclusive: 23.5 µM [inhibitor, single point]
Potency (WaGa): inconclusive: 18.7 µM [inhibitor, partial curve]

N=C(N)c1ccc2cc(OC(=O)c3ccc(N=C(N)N)cc3)ccc2c1
Potency (KB-3-1): inconclusive: 26.4 µM [inhibitor, single point]
Potency (MCC-13): inactive
Potency (MKL-1): inconclusive: 29.9 µM [inhibitor, single point]
Potency (MKL-2): inconclusive: 29.9 µM [inhibitor, single point]
Potency (C33A): inactive

O=S(=O)(NCCNCC=Cc1ccc(Br)cc1)c1cccc2cnccc12
Potency (KB-3-1): inconclusive: 13.2 µM [inhibitor, partial curve, poor fit]
Potency (MCC-13): inconclusive: 16.6 µM [inhibitor, partial curve]
Potency (UISO): inconclusive: 11.8 µM [inhibitor, partial curve]

C[C@]1(CO)CN(c2cc(C(=O)Nc3ccc4c(c3)-c3c(c(C(N)=O)nn3-c3ccc(F)cc3)CC4)c(Cl)cn2)C[C@@]1(C)CO
Potency (KB-3-1): inconclusive: 9.35 µM [inhibitor, full curve]
Potency (MCC-13): inconclusive: 20.9 µM [inhibitor, single point]
Potency (MCC-26): inconclusive: 33.2 µM [inhibitor, single point]
Potency (UISO): active: 9.35 µM
Potency (WaGa): active: 18.7 µM
Potency (C33A): inconclusive: 28.2 µM [cytotoxic, single point]
Potency (CAOV3): inactive

Cc1cccc(Nc2nc(N[C@@H]3CCCC[C@H]3N)ncc2C(N)=O)c1
Potency (KB-3-1): inconclusive: 29.6 µM [inhibitor, single point]
Potency (MCC-26): inconclusive: 14.8 µM [inhibitor, partial curve]
Potency (MKL-1): inconclusive: 37.2 µM [inhibitor, single point]

Nc1nc(Cl)nc2c1ncn2[C@@H]1O[C@H](CO)[C@@H](O)[C@H]1F
Potency (KB-3-1): inconclusive: 0.166 µM [inhibitor, full curve]
Potency (MCC-13): inconclusive: 0.0118 µM [inhibitor, full curve]
Potency (MCC-26): active: 0.59 µM
Potency (MKL-2): inconclusive: 0.0235 µM [inhibitor, full curve, poor fit]
Potency (UISO): inconclusive: 0.0047 µM [inhibitor, full curve, poor fit]

COc1ccc(-c2ccc3ncc4c(c3c2)n(-c2ccc(N3CCNCC3)c(C(F)(F)F)c2)c(=O)n4C)cn1
Potency (KB-3-1): active: 16.6 nM and active: 41.1 nM
Potency (MCC-13): inconclusive: 0.0047 µM [inhibitor, full curve, poor fit]
Potency (MCC-26): active: 0.372 µM
Potency (MKL-2): active: 0.0418 µM
Potency (UISO): active: 0.0235 µM
Potency (C33A): active: 11.2 µM
Potency (CAOV3): active: 2.51 µM

C=CCn1c(=O)c2cnc(Nc3ccc(N4CCN(C)CC4)cc3)nc2n1-c1cccc(C(C)(C)O)n1
Potency (KB-3-1): active: 0.264 µM
Potency (MCC-13): active: 6.62 µM
Potency (MCC-26): active: 4.69 µM
Potency (MKL-2): inconclusive: 0.0743 µM [inhibitor, full curve, poor fit]
Potency (UISO): active: 3.72 µM
Potency (WaGa): inconclusive: 1.48 µM [inhibitor, full curve]
Potency (C33A): active: 1.41 µM
Potency (CAOV3): active: 3.55 µM

CCC(C(=O)O)C1CCC(C)C(C(C)C(O)C(C)C(=O)C(CC)C2OC3(C=CC(O)[C@@]4(CC[C@](C)(C5CC[C@@](O)(CC)C(C)O5)O4)O3)C(C)CC2C)O1 (stereo partly specified)
Potency (KB-3-1): inconclusive: 5.9 µM [inhibitor, full curve]
Potency (MCC-26): inconclusive: 14.8 µM [inhibitor, partial curve]
Potency (MKL-2): active: 3.32 µM
Potency (UISO): active: 3.72 µM
Potency (WaGa): active: 2.96 µM

FC(F)c1nc2ccccc2n1-c1nc(N2CCOCC2)nc(N2CCOCC2)n1
Potency (KB-3-1): inconclusive: 0.105 µM [inhibitor, full curve]
Potency (MCC-26): inconclusive: 0.743 µM [inhibitor, full curve, poor fit]
Potency (MKL-2): inconclusive: 1.48 µM [inhibitor, full curve, poor fit]
Potency (UISO): inconclusive: 1.32 µM [inhibitor, full curve]
Potency (WaGa): inconclusive: 0.469 µM [inhibitor, full curve]
Potency (C33A): inconclusive: 3.98 µM [cytotoxic, full curve, poor fit]
Potency (CAOV3): inconclusive: 2 µM [cytotoxic, full curve]

COCC(=O)NCC=Cc1ccc2ncnc(Nc3ccc(Oc4ccc(C)nc4)c(C)c3)c2c1
Potency (KB-3-1): inconclusive: 20.9 µM [inhibitor, partial curve, poor fit]
Potency (MCC-13): inconclusive: 10.5 µM [inhibitor, partial curve, poor fit]
Potency (MKL-2): inconclusive: 37.2 µM [inhibitor, single point]
Potency (UISO): inconclusive: 23.5 µM [inhibitor, single point]
Potency (WaGa): inconclusive: 16.6 µM [inhibitor, partial curve, poor fit]

CC(C)(C)OC(=O)Nc1ccc(-c2cc(C(=O)NCCCCCCC(=O)NO)no2)cc1
Potency (KB-3-1): active: 8.33 µM
Potency (MCC-13): active: 11.8 µM
Potency (UISO): active: 10.5 µM
Potency (WaGa): active: 3.32 µM

Cc1[nH]nc2ccc(-c3cncc(OC[C@@H](N)Cc4ccccc4)c3)cc12
Potency (KB-3-1): active: 0.332 µM
Potency (MCC-13): active: 4.18 µM
Potency (MCC-26): active: 6.62 µM
Potency (UISO): active: 0.833 µM
Potency (WaGa): inconclusive: 0.662 µM [inhibitor, full curve]
Potency (C33A): inconclusive: 1.12 µM [cytotoxic, full curve, poor fit]
Potency (CAOV3): inconclusive: 20 µM [cytotoxic, partial curve, poor fit]

CN[C@@H]1CN(c2ccc3c(=O)c(C(=O)O)cn(-c4nccs4)c3n2)C[C@@H]1OC
Potency (KB-3-1): inconclusive: 14.4 µM [inhibitor, partial curve]
Potency (MCC-13): inconclusive: 7.24 µM [inhibitor, partial curve]
Potency (UISO): inconclusive: 1.62 µM [inhibitor, full curve]

Cn1cnc(=N)c2[nH]cnc21
Potency (KB-3-1): active: 10.5 µM
Potency (MCC-13): active: 14.8 µM
Potency (UISO): active: 5.26 µM
Potency (WaGa): active: 0.296 µM

CNC(=O)c1cccc(-c2ccc3c(N4CCOC[C@H]4C)nc(N4CCOC[C@H]4C)nc3n2)c1
Potency (KB-3-1): active: 0.118 µM
Potency (MCC-13): inconclusive: 2.35 µM [inhibitor, full curve]
Potency (MCC-26): inconclusive: 2.64 µM [inhibitor, full curve]
Potency (MKL-1): inconclusive: 2.64 µM [inhibitor, full curve]
Potency (WaGa): inconclusive: 1.18 µM [inhibitor, partial curve]

NC(=O)Nc1cc(-c2cccc(F)c2)sc1C(=O)N[C@H]1CCCNC1
Potency (KB-3-1): active: 2.09 µM and active: 1.03 µM
Potency (MCC-13): active: 14.8 µM
Potency (MCC-26): active: 11.8 µM
Potency (MKL-2): inconclusive: 0.105 µM [inhibitor, full curve]
Potency (UISO): active: 4.18 µM
Potency (C33A): active: 1.12 µM
Potency (CAOV3): active: 1.58 µM

O=C(NOC[C@H](O)CO)c1ccc(F)c(F)c1Nc1ccc(I)cc1F
Potency (NIH3T3): inconclusive: 4.18 µM [inhibitor, full curve]
Potency (MCC-13): inconclusive: 0.526 µM [inhibitor, full curve]
Potency (MKL-1): inconclusive: 2.09 µM [inhibitor, full curve]
Potency (MKL-2): inconclusive: 0.59 µM [inhibitor, full curve, poor fit]
Potency (UISO): inconclusive: 3.32 µM [inhibitor, full curve]
Potency (WaGa): inconclusive: 2.96 µM [inhibitor, full curve]
Potency (C33A): inactive
Potency (CAOV3): inconclusive: 25.1 µM [cytotoxic, single point]

CC(=O)Nc1cccc(-n2c(=O)n(C3CC3)c(=O)c3c(Nc4ccc(I)cc4F)n(C)c(=O)c(C)c32)c1
Potency (NIH3T3): active: 418 nM and active: 259 nM
Potency (MCC-13): inconclusive: 0.187 µM [inhibitor, full curve]
Potency (WaGa): inactive

COc1cc2c(c(OC)c1OC)-c1ccc(OC)c(=O)cc1[C@@H](NC(C)=O)CC2
Potency (NIH3T3): inconclusive: 0.0266 µM [inhibitor, full curve]
max response (NIH3T3): inactive: -60%
Potency (MCC-13): inconclusive: 0.0188 µM [inhibitor, full curve]
Potency (MCC-26): inactive
Potency (MKL-2): inconclusive: 0.0027 µM [inhibitor, full curve]
Potency (UISO): inconclusive: 0.0042 µM [inhibitor, full curve]
Potency (WaGa): inconclusive: 0.0067 µM [inhibitor, full curve]
Potency (C33A): inconclusive: 3.16 µM
Potency (CAOV3): inactive

CN(C)CCN1C(=O)c2cccc3cc(N)cc(c23)C1=O
Potency (NIH3T3): active: 3.32 µM
Potency (MCC-13): inconclusive: 14.8 µM [inhibitor, partial curve]
Potency (MKL-2): active: 18.7 µM

COc1ccc(CCN(C)CCCOc2ccc(S(=O)(=O)c3[nH]c4ccccc4c3C(C)C)cc2)cc1OC
Potency (NIH3T3): inconclusive: 37.2 µM [inhibitor, single point]
Potency (MKL-2): inconclusive: 26.4 µM [inhibitor, single point]
Potency (UISO): inconclusive: 29.6 µM [inhibitor, single point]
Potency (WaGa): inconclusive: 26.4 µM [inhibitor, single point]

CN(C)CCC=C1c2ccccc2C=Cc2ccccc21
Potency (NIH3T3): inconclusive: 33.2 µM [inhibitor, single point]
Potency (MKL-1): inconclusive: 18.8 µM [inhibitor, single point] and inactive
Potency (MKL-2): inconclusive: 21.1 µM [inhibitor, single point] and inconclusive: 18.7 µM [inhibitor, single point]
Potency (UISO): inconclusive: 15 µM [inhibitor, single point]
